Among all 360,000 compounds or so, about 6,000 (1.7%) were called active. This list was built around the results that the source calls inconclusive (neither active nor inactive); the mix of calls is not that of the screen. The call rests on the fitted dose curve; in most records, active means well fitted cell-killing curve with a large enough effect; inconclusive means small, poorly fitted or top-dose-only effect, or effect the other way; inactive means flat fitted curve, though single readings scatter. No potency is given beside an inconclusive call; the fits are too rough.
Experiment: qHTS for induction of synthetic lethality in tumor cells producing 2HG: qHTS for the HT-1080-NT fibrosarcoma cell line;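 further: NT is the 2HG producing partner of a matched IDH1 knockdown line; nearly all actives have a fitted effect of over 55% in size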
Details: HT-1080-NT fibrosarcoma viability, CellTiter-Glo ATP luminescence, 48 h; series mostly up to 46.1 µM
Procedure, shortened: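 HT-1080-NT fibrosarcoma cells (2HG-overproducing), 750 cells/well in RPMI with 5% FBS, dosed after 2 h and incubated 48 h at 37C. CellTiter-Glo luminescence normalized to DMSO and no-cell wells; concentration-response curves fitted and classed.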
Potency means the concentration at half of the fitted maximal effect; tags describe the fitted curve by direction and shape.

| Structure (SMILES) | Potency |
| --- | --- |
| CC1(Cc2ccc(Cl)c(Cl)c2)C(=O)Nc2c(Cl)ccc(Cl)c21 (configuration not stated) | inconclusive [cytotoxic, single point] |
| O=C1COc2ccc(C(=O)c3ccccc3)cc2CN1 | inactive |
| COc1c2ccoc2nc2c(OC)c(OC[C@@H](O)C(C)(C)O)ccc12 | inconclusive [cytotoxic, partial curve] |
| O=C(CCNS(=O)(=O)c1ccc(Br)s1)Nc1ccc(Cl)cc1 | inconclusive [cytotoxic, single point] |
| Cc1c(C(=O)N2CCCC2)c(S(=O)(=O)Nc2cccc(Br)c2)c(C)n1C | inactive |
| CCOC(=O)Cc1csc(NC(=O)c2ccc(S(=O)(=O)N3CCCC3)cc2)n1 | inconclusive [cytotoxic, single point] |
| CCOC(=O)c1sc(=S)n(C)c1NC(=O)c1cccc(Br)c1 | inconclusive [cytotoxic, single point] |
| CSCCNC(=O)C1(C)CCN1C(=O)c1ccc(C(C)(C)C)cc1 (configuration not stated) | inactive |
| CCCc1nc2ccc(Br)cn2c1Cc1ccccc1OC | inconclusive [cytotoxic, single point] |
| CCN(Cc1ccccc1)C(=O)CSc1n[nH]c(N)n1 | inactive |
| Cc1cc(C(=O)CCl)c(C)n1CC1COc2ccccc2O1 (configuration not stated) | active: 14.6 µM |
| CSc1ccc(COC(=O)c2cc([N+](=O)[O-])ccc2N2CCOCC2)cc1 | inconclusive [cytotoxic, full curve] |
| COc1ccc(C2C(C#N)=C(N)Oc3cc(O)ccc32)cc1OC (configuration not stated) | inactive |
| Cc1ccc(C)c(OCC(O)CN2CCCCC2C)c1 (configuration not stated) | inactive |
| [O-][n+]1c2cc(C(F)(F)F)ccc2c2n1CCN=C2c1ccc(Cl)cc1 | inactive |
| CN(C)c1nc(N)c(C(=O)N=C(N)N)nc1Cl | inconclusive [cytotoxic, partial curve] |
| CC(C)CN(CC(C)C)c1nnc(NC(=O)Cn2c(=O)oc3ccccc32)s1 | inactive |
| Cc1[nH]c2ccccc2c1CN1CCC(Cc2ccccc2)CC1 | inconclusive [cytotoxic, single point] |
| COc1cnc(-c2ccccc2)nc1Oc1ccc(Cl)cc1C | inactive |
| CC1(C(=O)Nc2cccc(Oc3ccccc3)c2)CCN1C1Cc2ccccc2C1 (configuration not stated) | inconclusive [cytotoxic, single point] |
| COc1cc(OC)cc(C(=O)OCC(=O)Nc2cccc(S(=O)(=O)NC3=NCCCCC3)c2)c1 | inactive |
| CN(C)c1ccc(C=c2c3ccccc3n3c2cc(-c2ccccc2)[n+]3C)cc1 | inconclusive [cytotoxic, partial curve] |

From PubChem BioAssay AID686970 (National Center for Advancing Translational Sciences (NCATS), 2013)
